Laboratory results: PubChem BioAssay AID485344 (National Center for Advancing Translational Sciences (NCATS), 2010)
Hit rate of the full screen: of about 340,000 compounds, about 6,900 (2%) were called active. No stated cut-off is given here; in the data, active means inhibition above about 30%; inactive means below that, where a call was filed. Only a part is listed here, and it is no random draw. Entries without a call were filed so in the source.

target: D(2) dopamine receptor (Homo sapiens) (UniProt P14416); test: HTS Assay for Allosteric Antagonists of the Human D2 Dopamine Receptor: Primary Screen for Antagonists; conditions: HEK293 TREx D2 cells, calcium flux, dopamine EC80; at 10 µM; stronger effect = higher value; further: 0% is about no effect
Outline: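 Calcium mobilization kinetics were recorded at 1 s intervals in tetracycline-induced HEK293 T-REx D2 cells, first for 180 s after compound addition and then 180 s after EC80 dopamine.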

Chain of UniProt P14416 (P14416 whole entry, looked up): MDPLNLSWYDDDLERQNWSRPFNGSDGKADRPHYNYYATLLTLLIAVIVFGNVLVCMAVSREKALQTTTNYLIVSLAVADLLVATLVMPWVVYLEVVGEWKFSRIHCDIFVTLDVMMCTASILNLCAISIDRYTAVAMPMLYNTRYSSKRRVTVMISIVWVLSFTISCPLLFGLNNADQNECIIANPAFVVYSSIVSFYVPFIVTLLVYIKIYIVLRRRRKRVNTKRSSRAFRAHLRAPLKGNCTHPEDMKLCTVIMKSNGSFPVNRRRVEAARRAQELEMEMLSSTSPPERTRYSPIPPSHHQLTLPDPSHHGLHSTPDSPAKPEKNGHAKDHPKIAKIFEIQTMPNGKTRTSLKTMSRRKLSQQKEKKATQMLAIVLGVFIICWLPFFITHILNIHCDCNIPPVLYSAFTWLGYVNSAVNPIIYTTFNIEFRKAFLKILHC

Compound | inhibition
CCOC(=O)c1cc2c(=O)n3ccccc3nc2n(CCCOC)c1=NC(=O)c1c(-c2c(F)cccc2Cl)noc1C | -12.8%
Cc1nc2c(c(C)nn2-c2ccccc2)c(C)c1CCC(=O)Nc1ccccc1 | 5.34%
O=C(Nc1ccc(S(=O)(=O)N(Cc2ccccc2)c2ccccc2)cc1)c1ccccc1F | 15.2%
CCCn1ccc2c(OCC(=O)Nc3ccccc3C(=O)OCC)cccc2c1=O | -3.58%
COC(=O)c1ccccc1NC(=O)CCCn1c(C)c2cnn(-c3ccccc3)c(=O)c2c1C | -1.85%
O=C(Nc1cccnc1)c1cc(-c2ccc(Cl)cc2Cl)on1 | active: 34.8%
CC(=O)c1ccc(NC(=O)[C@@H]2CCCN2C2=NS(=O)(=O)c3ccccc32)cc1 | active: 37.2%
Cc1ccccc1Cn1c(SCc2ccc(C(=O)N3CCCCC3)cc2)nc2ccncc21 | -9.07%
CCCOc1ccc(OC(=O)c2ccc(-c3ccc(CCC)cn3)cc2)cc1 | -9.42%
COc1cc(NC(=O)CCNC(=O)Cn2ccc3ccccc3c2=O)cc(OC)c1OC | 0.352%
C=CCNc1nc(C(=O)OCC(=O)Nc2c(Cl)cccc2C(F)(F)F)cs1 | active: 36.3%
O=C1CCc2cc(S(=O)(=O)NCc3ccccc3)cc3c2N1CC3 | 6.93%
COc1ccc(CCNC(=O)c2cc(Nc3ccccc3)nc3ccccc23)cc1OC | 0.397%
CCn1c(C(=O)Nc2ccccc2C(=O)OC)cc2sc(Cl)cc21 | 2.62%
COC(=O)c1c(NC(=O)CCCOc2ccc(C)cc2)sc2c1CCCC2 | 3.27%
OC(COc1ccccc1)CN1CCN(CC(O)COc2ccccc2)CC1 (configuration not stated) | active: 30.5%
CCOc1ccc(C(=O)N2CCc3cc(OC)c(OC)cc3C2COc2ccc3c(C)cc(=O)oc3c2)cc1OCC (configuration not stated) | -4.09%
CCOc1ccc(CNC(=O)CCCn2c(=O)c3cccn3c3cccnc32)cc1 | 22.7%
CC(=O)c1ccc(NC(=O)C2CCN(S(=O)(=O)c3c(C)noc3/C=C/c3ccc(C)cc3)CC2)cc1 | -6.29%
Oc1ccccc1-c1nc2cnccn2c1Nc1ccc(Cl)cc1 | 1.23%
COc1ccc(CNC(=O)CN2C(=O)COc3ccccc32)c(OC)c1 | 6.05%
Cc1ccc2nc(NC(=O)CSc3cc(C)[nH]c(=O)n3)sc2c1 | 2.73%
CCCCn1c(S(=O)(=O)O)nc2ccccc21 | active: 33.1%
CC1CC(C)CN(CCOc2cccc(Cl)c2Cl)C1 (configuration not stated) | active: 86.4%
COc1ccc(-c2nn3c(-c4ccccc4)nnc3c3ccccc23)cc1 | 2.77%

Compound | inhibition
CC(=O)c1cccc(NC(=O)CCn2nc(C)c(S(=O)(=O)N3CCCCC3)c2C)c1 | -11.8%
O=C(NCCc1ccc(Cl)cc1)c1cnc2sc(N3CCCC3)nn2c1=O | 13.2%
Cc1ccc(OCC(=O)NCC(=O)OCc2cc(=O)n3nc(CC(C)C)sc3n2)cc1 | 5.88%
CCc1ccccc1NC(=O)C1CCCN(S(=O)(=O)c2ccc3[nH]c(=O)ccc3c2)C1 (configuration not stated) | 14.8%
Cc1ccc2oc(=O)c3cnn(CC(=O)N4CCN(c5cccc(Cl)c5)CC4)c3c2c1 | -7.03%
CCOC(=O)c1[nH]c(C)c(CCC(=O)N2CCN(c3cc(C)ccc3C)CC2)c1C | -5.71%
CCOc1ccc(OCC)c(NC(=O)CN(C)S(=O)(=O)c2ccc3[nH]c(=O)oc3c2)c1 | 3.04%
Cc1ccc(NC(=O)c2nc(S(=O)(=O)Cc3ccc(F)cc3)ncc2Cl)cc1C | 24.6%
Cc1cccc(C(=O)Nc2ccc3nc(SCC(=O)N4CCCC4)sc3c2)c1 | 1.75%
O=C(CSc1nc(=O)[nH]c2c1CCC2)Nc1cc(C(F)(F)F)ccc1Cl | 14.4%
Cc1cc(C(=O)NCCc2ccc(Cl)cc2)c2c(C)nn(-c3ccccc3)c2n1 | 8.53%
COc1cc(CNC(=O)c2ccc(NC(=O)N3CCCCc4ccccc43)cc2)cc(OC)c1OC | -0.509%
COc1ccc(-c2n[nH]c3c2C(c2ccccn2)N(C)C3=O)cc1 (configuration not stated) | -16.5%
COc1ccc(-n2nc3c(N4CCC(C(=O)NC5CCCCC5)CC4)nnc(C)c3c2C)cc1 | 3.3%
CC(C)CCN1CCN(Cc2cn[nH]c2C2CCCCC2)CC1CCO (configuration not stated) | active: 56.2%
COc1ccc(OC)c(CCNC(=O)CCCn2c(=O)c3cccn3c3cccnc32)c1 | 26.6%
CCOc1ccc(CNS(=O)(=O)c2ccc3c(c2)CC(C)N3C(C)=O)cc1OC (configuration not stated) | -8.28%
O=C(NCc1ccccc1)c1ccc(CS(=O)(=O)c2c(Cl)cccc2Cl)o1 | 2.69%
COc1ccc(N2CCN(C(=O)CSc3nc(-c4ccccc4)no3)CC2)cc1 | -12.5%
Cc1ccc(NC(=O)Cn2nc(C)c3nn(-c4ccc(Cl)cc4)c(C)c3c2=O)cc1F | 3.16%
COC(=O)c1ccc(NC(=O)CSc2nnnn2C2CCCCC2)cc1 | active: 41.7%
COc1ccc(CNC(=O)c2cnn(-c3ccccc3)c2-n2cccc2)cc1OC | -8.98%
CCN(CC)CCN(C(=O)c1ccco1)c1nc2ccc(F)cc2s1 | -20.7%
Cc1ccc(-c2nnc(SCC(=O)NCc3ccccc3)o2)cc1 | 3.33%
O=C(CN1CCN(c2ccccc2)CC1)Nc1ccc2c(c1)OCCO2 | active: 45.2%

Compound | inhibition
CCOC(=O)c1c(NC(=O)CSc2ncn[nH]2)sc(C)c1C | active: 38.1%
CC1=C(c2ccc(C)c(C)c2)S(=O)(=O)N=C1N1CCC(C(=O)NCc2ccc(N(C)C)cc2)CC1 | 1.71%
Nc1c(-c2nc(-c3ccccc3Cl)no2)nnn1-c1ccccc1C(F)(F)F | 15.1%
COc1ccccc1NC(=O)N1CCN(c2nnc(C)c3c(C)n(-c4ccccc4)nc23)CC1 | -0.846%
O=c1c2oc3ccccc3c2n(Cc2ccccc2F)c(=O)n1Cc1ccc2c(c1)OCO2 | -2.85%
CCN(CC)S(=O)(=O)c1ccc(NC(=O)c2c(C)oc3ncnc(N4CCCCC4)c23)cc1 | 2.47%
Cc1ccc(C)c(N2CCN(S(=O)(=O)c3cc(C(=O)Nc4ccccc4C(F)(F)F)ccc3F)CC2)c1 | -5.24%
CC(Oc1ccccc1)C(=O)Nc1c(C(=O)Nc2cccc(F)c2)oc2ccccc12 (configuration not stated) | -11.9%
CCc1ccc(S(=O)(=O)Nc2cc3c(cc2C)n(C)c(=O)c(=O)n3C)cc1 | -10.5%
Cc1cc(NC(=O)Cn2c(=O)oc3ccccc32)no1 | active: 32.7%
CCOC(=O)c1c(NC(=O)COc2ccc(Cl)cc2Cl)sc2c1CCCCC2 | -5.14%
CN(C)c1ccc(CNC(=O)Cn2c(-c3cccs3)cc3cc(Cl)ccc32)cc1 | 3%
CCCC(=O)N1c2ccccc2-c2nnc(SC)nc2OC1c1sccc1C (configuration not stated) | -18.8%
COc1ccc(S(=O)(=O)N2CCC(n3c(C)nc4cccnc43)CC2)cc1Cl | 1.85%
COc1nc2ccccc2nc1N1CCN(Cc2ccc3c(c2)OCO3)CC1 | active: 51%
COC(=O)CNC(=O)c1cccs1 | active: 65.9%
COc1ccccc1NC(=O)CCS(=O)(=O)c1ccc2c(c1)oc(=O)n2C | active: 31.5%
COc1cccc(-c2cc(C(=O)NCc3ccc(F)cc3)no2)c1 | 28.3%
COc1cccc(-c2cc(C(F)(F)F)n3ncc(C(=O)N4CCc5ccccc5C4)c3n2)c1 | active: 50%
COc1cccc(CNC(=O)CCn2cnc3ccccc3c2=O)c1 | 3.45%
O=C(CCN1C(=O)c2ccccc2Sc2ncccc21)Nc1ccc(F)cc1 | 0.112%
CC(CCc1ccccc1)NC(=O)Cn1ncc2c3ccccc3n(Cc3ccccc3)c2c1=O (configuration not stated) | 0.0771%
CCCCOc1ccccc1C1CC(=O)Nc2cc(C)c(C)cc21 (configuration not stated) | -11.1%
COc1ccc(-c2nnc(SCC(=O)Nc3c(C)cccc3C)nc2-c2ccc(OC)cc2)cc1 | -18.6%
CNc1nc(C)nc(N/N=C/c2ccccc2)n1 | active: 42.4%

Compound | inhibition
CC(C)CNc1ncnc2onc(-c3ccc(Cl)cc3)c12 | 7.4%
CCOC(=O)c1ccc(NC(=O)c2oc3c(c2C)-c2nn(Cc4ccccc4Cl)cc2CC3)cc1 | 5.41%
COc1cc(C(=O)NCCc2sc(-c3cccc(F)c3)nc2C)cc(OC)c1OC | 7.25%
Cc1nc2cc(-c3cccc(F)c3)nn2c(C)c1CCC(=O)NC(C)c1ccccc1 (configuration not stated) | 3.57%
O=C(Nc1ccccc1Br)c1cc(CN2CCCC2)on1 | 15.7%
O=C(O)[C@H]1CCCC[C@H]1C(=O)NCCc1ccccc1 | active: 44.8%
COc1cc2c(cc1NC(=O)c1ccccc1C)n(C)c(=O)n2C | -9.83%
COC(=O)c1c(NC(=O)C2c3ccccc3Oc3ccccc32)sc2c1CCC(C(C)(C)C)C2 (configuration not stated) | -11%
CCOC(=O)N1CCC(NC(=O)CCS(=O)(=O)c2ccc3c(c2)CCN3C(=O)CC)CC1 | active: 73.2%
CCc1ccc(CNC(=O)c2ccc(-c3nc(CSc4ccc(C)cc4)c(C)o3)cc2)cc1 | 5.2%
CCSc1nnc(NC(=O)c2cc(=O)c3cc(C)ccc3o2)s1 | -7.19%
O=C(CSc1oc(-c2ccc(F)cc2)nc1S(=O)(=O)c1ccccc1)NC1CCCCC1 | -2.17%
CCOc1ccc(S(=O)(=O)N2CCN(Cc3nc4ccc(C)cc4o3)CC2)cc1 | 18.9%
O=C1C(=O)N(C2CCN(C(=O)c3cccc(Cl)c3)CC2)CCN1Cc1ccc(F)cc1 | 0.541%
O=C(CSc1nc2c([nH]c3ccccc32)c(=O)n1-c1ccccc1F)Nc1cccc(C(F)(F)F)c1 | 0.208%
CCOc1ccc(NC(=O)c2cnc3sc(N4CCOCC4)nn3c2=O)cc1 | -7.95%
COC(=O)CCN(c1ccccc1)C(CNS(=O)(=O)c1ccccc1)c1ccccc1 (configuration not stated) | -5.03%
CN(Cc1nc(-c2ccccn2)no1)S(=O)(=O)c1ccccc1 | active: 37.5%
COc1ccc(Nc2oc(/C=C/c3ccccc3OC)nc2C#N)cc1 | -11.4%
O=C(Nc1cccc(C(=O)OCc2cc(=O)n3nc(C4CC4)sc3n2)c1)c1cccc(Cl)c1 | -9.69%
CCOc1ccc(CCNC(=O)Cn2c(-c3cccs3)cc3ccccc32)cc1OCC | -5.47%
Cc1ccc(C)c(NC(=O)CSc2ccc3nc(-c4ccccc4)cn3n2)c1 | 16.3%
